# From PubChem BioAssay AID588591 (National Center for Advancing Translational Sciences (NCATS), 2011)
# Screen size: about 390,000 compounds; about 4,700 (1.2%) were called active. Inconclusive means that the source gave no clear call. Such entries were picked first, then a sample of the others. The call rests on the fitted dose curve; in most records, active means well fitted inhibition curve with a large enough effect; inconclusive means small, poorly fitted or top-dose-only effect, or another doubt; inactive means no such curve, though single readings can be large or run the other way. Where the call is inconclusive, the potency comes from a doubtful curve fit.
# Target: DNA polymerase eta (Homo sapiens) (UniProt Q9Y253)
# Test: qHTS for Inhibitors of Polymerase Eta
# Details: recombinant Pol eta, fluorescent DNA replication assay; series mostly up to 114 µM; activity change, negative = inhibition: at the top concentration
# How it was run: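 Pol eta (10 nM) was preincubated with compounds for 15 min at room temperature, after which fluorescent replication substrate (50 nM final) was added to start the reaction. Fluorescence was read kinetically at 0 and 10 min.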
# On the % scale 0 is the no-effect control and ±100 the full control effect; potency means the concentration at half of the fitted maximal effect; tags describe the fitted curve by direction and shape.
# UniProt Q9Y253, sequence (Q9Y253 whole entry, looked up): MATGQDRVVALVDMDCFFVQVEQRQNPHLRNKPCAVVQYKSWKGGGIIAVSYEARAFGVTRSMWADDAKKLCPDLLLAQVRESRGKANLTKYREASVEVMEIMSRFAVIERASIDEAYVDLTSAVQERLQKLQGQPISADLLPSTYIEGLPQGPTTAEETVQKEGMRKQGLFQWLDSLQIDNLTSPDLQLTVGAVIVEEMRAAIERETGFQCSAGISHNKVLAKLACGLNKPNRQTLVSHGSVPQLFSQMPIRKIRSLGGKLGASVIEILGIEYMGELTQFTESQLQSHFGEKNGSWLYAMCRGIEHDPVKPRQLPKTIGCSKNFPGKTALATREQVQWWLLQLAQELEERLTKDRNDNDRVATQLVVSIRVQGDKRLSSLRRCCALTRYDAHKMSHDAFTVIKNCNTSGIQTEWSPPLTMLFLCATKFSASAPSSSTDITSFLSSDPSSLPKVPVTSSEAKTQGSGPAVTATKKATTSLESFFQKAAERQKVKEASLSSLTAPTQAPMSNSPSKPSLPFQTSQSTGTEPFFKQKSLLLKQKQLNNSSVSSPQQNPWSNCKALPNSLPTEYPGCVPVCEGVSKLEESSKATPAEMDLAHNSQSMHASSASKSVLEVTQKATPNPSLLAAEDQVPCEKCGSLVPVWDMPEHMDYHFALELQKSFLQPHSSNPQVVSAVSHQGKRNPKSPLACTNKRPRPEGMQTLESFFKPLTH
SMILES,"activity change, negative = inhibition",Potency
CCc1ccccc1OCC(=O)Nc1nnc(C2CC2)s1,inactive: -4.3%,
CCC(C)(C)NC(=O)C(c1ccc(OC)cc1)N(C(=O)CCC(=O)Nc1cc(C)on1)c1ccccc1F (stereo not drawn),,"inconclusive: 79.4 µM [inhibitor, partial curve, poor fit]"
CC(=O)Nc1ccc(Nc2nc(-c3ccccc3)nc3ccccc23)cc1,,"inconclusive: 25.1 µM [inhibitor, partial curve, poor fit]"
c1cc(CNc2ccc3c(c2)OCO3)ccn1,,"inconclusive: 28.2 µM [inhibitor, partial curve, poor fit]"
CC[C@H](C)/C=C(C)/C=C/C1=CC2=CC(=O)[C@]3(C)OC(=O)[C@@H](C(C)=O)[C@@H]3C2=CO1,,active: 25.1 µM
Cc1ccc(-c2noc(CN(C3CCCCC3)S(=O)(=O)c3ccc(Cl)cc3)n2)cc1,inactive: -16.5%,
Cc1c(Cl)cccc1N(CC(=O)NC(C)c1ccccc1)S(C)(=O)=O (stereo not drawn),inactive: -11.8%,
Cc1cc(C)cc(C(=O)N2CC(=O)Nc3ccc(C)cc3C2c2ccccc2)c1 (stereo not drawn),,"inconclusive: 79.4 µM [inhibitor, partial curve, poor fit]"
C/C=C(\C)C(=O)NCCN1C2=NC[C@H](C)N2C[C@@H]1Cc1ccc(OC)cc1,inactive: -10.2%,
CC(C)(C)C(=O)Nc1ccccc1C(=O)OCC(=O)c1ccc2c(c1)OCCO2,,"inconclusive: 89.1 µM [inhibitor, partial curve, poor fit]"
CN(C)CCNC(=S)Nc1ccccc1Cl,inactive: -15.4%,
COC(=O)C[C@H]1c2cc(C(F)(F)F)ccc2S(=O)(=O)N1C1CCCC1,inactive: -8.31%,
O=C(CSc1ccc(Br)c2cccc(Cl)c12)Nc1ccc(S(=O)(=O)Nc2nccs2)cc1,,active: 44.7 µM
COc1cc(N=Nc2ccc(Br)cc2)cc(C=O)c1O,,"inconclusive: 31.6 µM [inhibitor, partial curve, poor fit]"
CC1=CC2=NC(=O)/C(=C/c3coc4ccc(Cl)cc4c3=O)C(=N)N2O1,,"inconclusive: 31.6 µM [inhibitor, full curve]"
O=C(CSc1ccsc1[N+](=O)[O-])N1CCN(c2ccc(Cl)cc2)CC1,,active: 28.2 µM
Oc1ccc(-c2nc(-c3ccc(F)cc3)c(-c3ccncc3)[nH]2)cc1,,"inconclusive: 22.4 µM [inhibitor, single point]"
Cc1onc(-c2ccccc2)c1C(=O)Nc1nnc(COc2ccc(Cl)cc2)s1,inactive: -4.84%,
Cc1ccsc1C(=O)NCCc1ccco1,,active: 22.4 µM
CCN(CC)CCCNc1nc2cc(OC)c(OC)cc2c2nc(-c3ccccc3)nn12,,"inconclusive: 44.7 µM [inhibitor, partial curve]"
Cc1cc(C)cc(Nc2cc(=O)n(C3CCCCC3)c(=O)[nH]2)c1,,"inconclusive: 35.5 µM [inhibitor, single point]"
CC(=O)Nc1ccc(NC(=O)CC2(CC(=O)N3CCOCC3)CCCC2)cc1,inactive: -9.91%,
Cc1cn(C)c(CC(=O)NCc2cccc(Cl)c2)c1C(=O)O,inactive: -13.4%,

SMILES,"activity change, negative = inhibition",Potency
N#C/C(=C/c1ccc(-c2ccc(S(N)(=O)=O)cc2)o1)C(=O)Nc1ccccc1,,"inconclusive: 28.2 µM [inhibitor, partial curve, poor fit]"
COc1ccccc1NC(=O)c1cc2cc(Br)ccc2cc1O,,"inconclusive: 50.1 µM [inhibitor, partial curve, poor fit]"
CCN1CCN(c2ncc3c(n2)CCN(Cc2cc(Br)cs2)C3)CC1,inactive: 2.32%,
O=C(N/N=C/c1cc(Cl)cc([N+](=O)[O-])c1O)NC12CC3CC(CC(C3)C1)C2,,active: 7.94 µM
O=C(/C=C/c1c(F)cccc1Cl)c1ccc(F)cc1,,"inconclusive: 20 µM [inhibitor, single point]"
CC(C)OC(=O)CC(=O)c1sc2nc3c(cc2c1N)CN(C)CC3,,"inconclusive: 56.2 µM [inhibitor, partial curve, poor fit]"
CCOC(=O)N1CCC(NC(=O)c2cccc3c2C(=O)N(c2ccc(OC)cc2)C3)CC1,,active: 17.8 µM
Cn1c(N/N=C/c2ccccc2)nc2sc3c(c2c1=O)CCC3,,"inconclusive: 25.1 µM [inhibitor, single point]"
Cc1ccc(Cl)cc1NC(=O)Cn1c(=O)cc(C)c2c(C)nn(C)c21,inactive: -19.8%,
O=C(Nc1ccccc1N1CCCCC1)c1ccc(F)c(S(=O)(=O)N2CCOCC2)c1,,"inconclusive: 79.4 µM [inhibitor, partial curve, poor fit]"
COc1ccc(N2CCN(C(=O)CSc3nnc4c(C)cc5cc(C)ccc5n34)CC2)cc1,,"inconclusive: 0.316 µM [inhibitor, full curve, poor fit]"
COc1ccc2[nH]c(C(=O)N/N=C/c3ccccc3OC)cc2c1,,"inconclusive: 56.2 µM [inhibitor, partial curve, poor fit]"
Cc1ccc2cc(C)c3nnc(SCC(=O)NCc4ccco4)n3c2c1,inactive: -19.3%,
COc1ccc(-n2nc3c(N4CCC(C(=O)NCc5cccc(F)c5)CC4)nnc(C)c3c2C)cc1,,"inconclusive: 89.1 µM [inhibitor, partial curve]"
Nc1cccc2[nH]c(C(F)(F)F)nc12,,active: 79.4 µM
COc1ccccc1CNC(=O)CCNS(=O)(=O)c1ccc2[nH]c(=O)oc2c1,,active: 79.4 µM
Cc1ccc(C(CCN(Cc2ccccc2)C(=O)c2ccco2)c2ccco2)cc1 (stereo not drawn),,active: 17.8 µM
Cc1cccc(N2CCN(CC(=O)Nc3ccc(-n4cnnn4)cc3)CC2)c1C,,"inconclusive: 11.2 µM [inhibitor, partial curve]"
COc1ccc(Cl)cc1NC(=O)c1oc(C)nc1C,,"inconclusive: 89.1 µM [inhibitor, partial curve, poor fit]"
Cc1ccc(OCCOCCOc2cccc3cccnc23)c(Br)c1,,"inconclusive: 79.4 µM [inhibitor, partial curve, poor fit]"
COc1cc(CCNc2ccc3nnc(-c4ccccc4)n3n2)cc(OC)c1OC,inactive: 1.6%,
O=C(O)c1ccc(N/N=C/c2ccc(OC(=O)c3ccccc3Cl)cc2)cc1,,"inconclusive: 89.1 µM [inhibitor, partial curve, poor fit]"
N#C/C(=N\Nc1cccc(C(F)(F)F)c1)C(=O)c1csc(-c2cccnc2)n1,,"inconclusive: 89.1 µM [inhibitor, single point]"

SMILES,"activity change, negative = inhibition",Potency
c1cnc2ccc(C(c3nnnn3C3CCCCC3)N3CCCCC3)cc2c1 (stereo not drawn),,"inconclusive: 5.01 µM [inhibitor, partial curve, poor fit]"
COc1ccc(-c2nc3c(c(SCC(=O)Nc4cccc(O)c4)n2)Cc2c(CO)cnc(C)c2O3)cc1,,active: 20 µM
CC1=C(CO)C(=O)OC([C@@H](C)C2CC[C@H]3C4C[C@H]5O[C@]56[C@@H](O)C=CC(=O)[C@]6(C)C4CC[C@]23C)C1 (stereo partly drawn),,active: 50.1 µM
CCOc1ccc(-c2nnc(-c3cccnc3)o2)cc1OCC,inactive: -17%,
CC1(C)CC(=O)C2=C(C1)OC(N)=C(C#N)C2c1cc2c(cc1[N+](=O)[O-])OCO2 (stereo not drawn),,"inconclusive: 20 µM [inhibitor, partial curve, poor fit]"
COC(=O)c1cc(NC(=O)CCc2c(C)nc3c(c(C)nn3C(C)(C)C)c2C)cc(C(=O)OC)c1,,"inconclusive: 89.1 µM [inhibitor, partial curve, poor fit]"
CC(C)C(=O)N1CCN(c2ccccc2NC(=S)NC(=O)c2cccs2)CC1,inactive: -19%,
Cc1ccc(S(=O)(=O)Oc2ccc(C3C4=C(CCCC4=O)N(CCC(=O)O)C4=C3C(=O)CCC4)cc2Cl)cc1,,"inconclusive: 17.8 µM [inhibitor, full curve, poor fit]"
COc1cc2[nH]c(=O)n(C3CCCCC3)c(=O)c2cc1OC,,"inconclusive: 31.6 µM [inhibitor, single point]"
Fc1ccc(Br)cc1C1C=C(c2ccc(Br)s2)Nc2ncnn21 (stereo not drawn),,active: 28.2 µM
COc1ccc(C)cc1NC(=O)CN1c2cccc3cccc(c23)S1(=O)=O,inactive: -8.64%,
CC(=O)c1ccc(O)c(CC=C(C)C)c1O,,"inconclusive: 89.1 µM [inhibitor, partial curve, poor fit]"
CCc1nnc(NS(=O)(=O)c2ccc(N=Cc3c(C)[nH]n(-c4ccc(Cl)cc4)c3=O)cc2)s1,,"inconclusive: 17.8 µM [inhibitor, partial curve, poor fit]"
CC1=C(C(=O)OCc2cc(C)on2)N2C(=O)[C@@H](NC(=O)OCc3cc(C)on3)[C@H]2SC1,,"inconclusive: 39.8 µM [inhibitor, single point]"
Cc1noc(C)c1S(=O)(=O)N(CC(=O)Nc1ccc(F)cc1F)c1ccc(C(C)C)cc1,,"inconclusive: 3.98 µM [inhibitor, partial curve, poor fit]"
CC(/C=C/c1ccc(Cl)o1)=C\C(=O)O,,active: 22.4 µM
c1ccc(C2=Nn3c(nnc3-c3cc(-c4ccccc4)n[nH]3)SC2)cc1,,"inconclusive: 31.6 µM [inhibitor, partial curve, poor fit]"
O=C(N/N=C/c1cc(Br)c(Br)o1)c1ccc2c(c1)OCCO2,,active: 12.6 µM
COc1ccc(C(Nc2ccccn2)c2ccc3ccc(C)nc3c2O)cc1C (stereo not drawn),,"inconclusive: 44.7 µM [inhibitor, partial curve, poor fit]"
CCCN(CCC)CCCNC(=O)c1cc2c(=O)n(C)c3ccccc3c2s1,inactive: -4.54%,
CC1CC1c1ccc(/C=C(\C#N)C(=O)Nc2cc(Cl)ccc2Cl)o1 (stereo not drawn),inactive: -20.8%,
CCn1cc2nc(SCc3ccccc3Cl)n(Cc3ccc(OC)cc3)c(=O)c2n1,inactive: -5.15%,
